Assay results published in patent US11773160 (ANAVEON, dated 2023).

T1: trimeric IL-2 receptor on HEK-Blue IL-2 reporter cells (UniProt P01589 22-272; P14784 27-551; P31785 23-369, limits assumed)
T1 sequence (looked up) 1: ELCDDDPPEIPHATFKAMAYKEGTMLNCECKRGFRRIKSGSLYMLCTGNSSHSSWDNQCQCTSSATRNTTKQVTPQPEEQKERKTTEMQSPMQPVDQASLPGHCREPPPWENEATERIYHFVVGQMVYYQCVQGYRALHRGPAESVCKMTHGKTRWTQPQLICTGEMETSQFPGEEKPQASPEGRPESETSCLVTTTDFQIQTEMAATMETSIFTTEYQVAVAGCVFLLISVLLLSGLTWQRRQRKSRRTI
T1 sequence (looked up) 2: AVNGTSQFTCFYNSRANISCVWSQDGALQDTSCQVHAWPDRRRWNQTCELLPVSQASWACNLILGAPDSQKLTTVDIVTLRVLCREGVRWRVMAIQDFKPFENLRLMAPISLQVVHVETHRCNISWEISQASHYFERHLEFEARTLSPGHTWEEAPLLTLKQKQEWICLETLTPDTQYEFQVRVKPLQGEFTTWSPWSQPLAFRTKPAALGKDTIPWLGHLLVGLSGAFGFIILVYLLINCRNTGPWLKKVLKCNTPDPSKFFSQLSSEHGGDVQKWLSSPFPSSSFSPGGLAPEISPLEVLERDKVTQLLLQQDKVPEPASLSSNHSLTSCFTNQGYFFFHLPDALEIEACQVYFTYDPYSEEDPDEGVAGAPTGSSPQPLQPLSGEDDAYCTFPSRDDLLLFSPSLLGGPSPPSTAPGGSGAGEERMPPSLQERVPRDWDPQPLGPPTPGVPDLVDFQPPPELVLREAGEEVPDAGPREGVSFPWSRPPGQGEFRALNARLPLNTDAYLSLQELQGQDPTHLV
T1 sequence (looked up) 3: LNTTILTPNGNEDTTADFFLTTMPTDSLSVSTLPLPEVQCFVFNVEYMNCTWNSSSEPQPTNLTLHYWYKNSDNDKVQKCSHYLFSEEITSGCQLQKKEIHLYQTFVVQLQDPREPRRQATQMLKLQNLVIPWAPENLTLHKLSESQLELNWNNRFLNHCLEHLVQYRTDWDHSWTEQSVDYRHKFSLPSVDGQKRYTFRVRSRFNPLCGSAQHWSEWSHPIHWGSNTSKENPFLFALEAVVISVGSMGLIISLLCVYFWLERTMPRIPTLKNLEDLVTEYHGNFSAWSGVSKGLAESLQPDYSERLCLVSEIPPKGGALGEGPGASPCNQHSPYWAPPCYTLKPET

T2: IL-2R on murine splenocytes (C57BL/6)
T2 sequence (P01590 whole entry, looked up): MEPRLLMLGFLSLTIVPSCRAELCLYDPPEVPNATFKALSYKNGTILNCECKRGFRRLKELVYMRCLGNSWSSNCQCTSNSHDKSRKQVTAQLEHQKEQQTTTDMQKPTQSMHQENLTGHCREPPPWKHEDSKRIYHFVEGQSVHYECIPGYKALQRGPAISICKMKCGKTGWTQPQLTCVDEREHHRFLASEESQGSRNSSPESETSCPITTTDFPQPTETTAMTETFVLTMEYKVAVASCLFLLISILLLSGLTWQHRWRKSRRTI
T2 sequence (P16297 whole entry, looked up): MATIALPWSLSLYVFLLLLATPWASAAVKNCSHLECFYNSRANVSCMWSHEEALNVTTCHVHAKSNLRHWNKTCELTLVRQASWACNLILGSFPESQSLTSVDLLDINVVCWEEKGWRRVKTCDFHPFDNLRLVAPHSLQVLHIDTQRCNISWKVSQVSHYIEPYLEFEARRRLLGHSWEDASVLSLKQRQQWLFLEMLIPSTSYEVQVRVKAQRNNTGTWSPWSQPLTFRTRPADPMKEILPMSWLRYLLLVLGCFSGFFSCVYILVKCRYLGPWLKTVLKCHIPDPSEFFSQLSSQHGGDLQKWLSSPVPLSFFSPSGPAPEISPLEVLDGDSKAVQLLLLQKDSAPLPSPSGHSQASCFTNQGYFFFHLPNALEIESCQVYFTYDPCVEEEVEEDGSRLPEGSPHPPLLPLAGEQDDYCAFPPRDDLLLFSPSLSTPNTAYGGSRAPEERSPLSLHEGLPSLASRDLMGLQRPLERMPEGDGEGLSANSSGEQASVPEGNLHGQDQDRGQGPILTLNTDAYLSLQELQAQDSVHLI
T2 sequence (P34902 whole entry, looked up): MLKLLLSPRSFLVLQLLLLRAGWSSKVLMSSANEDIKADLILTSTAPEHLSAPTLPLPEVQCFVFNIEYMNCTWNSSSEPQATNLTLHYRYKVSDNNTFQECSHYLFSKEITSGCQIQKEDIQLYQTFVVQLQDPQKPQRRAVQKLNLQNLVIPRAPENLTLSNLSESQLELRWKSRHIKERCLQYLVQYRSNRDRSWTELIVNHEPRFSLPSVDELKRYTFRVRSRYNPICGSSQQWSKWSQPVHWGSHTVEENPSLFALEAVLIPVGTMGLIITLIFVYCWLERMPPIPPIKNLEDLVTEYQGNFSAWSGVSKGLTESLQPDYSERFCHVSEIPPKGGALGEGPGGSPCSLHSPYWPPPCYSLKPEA

T3: His-tagged recombinant CD25 (human, UniProt P01589 22-213, limits assumed)
T3 construct: Captured via TrisNTA Biotin on SA chips; also called IL-2 receptor alpha; IL-2Rα; not shown: His tag
T3 sequence (looked up): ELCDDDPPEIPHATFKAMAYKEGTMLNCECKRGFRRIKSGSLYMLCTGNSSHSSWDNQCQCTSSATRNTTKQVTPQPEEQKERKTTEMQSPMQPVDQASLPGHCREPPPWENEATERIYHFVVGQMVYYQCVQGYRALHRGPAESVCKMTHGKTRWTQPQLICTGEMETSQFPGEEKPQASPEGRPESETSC


Experiments:
[1] = target: T1, trimeric IL-2 receptor on HEK-Blue IL-2 …; assay: cell-based or functional assay
[2] = target: T4, monoclonal anti-human IL-2 antibody 5344 (BD, 555051); assay: sandwich ELISA, 5344 coated, fusion protein titrated, anti-human IgG-Peroxidase
T4 construct: Coated capture antibody
Protocol: The antibody-IL-2 fusion proteins were tested on a sandwich ELISA, to assess the correct folding of the IL-2 portion. […] The obtained signals (Absorbance 450-570 nm) were plotted as function of antibody-IL-2 fusion protein concentration (as log value). The $EC50$ values were interpolated fitting the data with GraphPad Prism 8 (Table 6).

[3] = target: T2, IL-2R on murine splenocytes (C57BL/6); assay: cell-based or functional assay
[4] = target: T3, His-tagged recombinant CD25; assay: SPR (BIAcore 3000), His-tagged CD25 captured via TrisNTA Biotin on SA chip, kinetic titration of fusion protein
Protocol: HEK-Blue™ IL-2 reporter cells (Invivogen) were incubated with a dilution series (1:3 dilutions from 0.56 nM) of antibody-IL-2 fusion protein in growth medium for 20 hours Example 4. IL-2 fusion protein in vitro selectivity Binding affinities to CD25 measured by SPR Binding affinities of the IL-2 fusion protein to the IL-2 receptor CD25 were measured by SPR (BIAcore 3000, GE Healthcare, 33-1140587-3682). His-tagged recombinant CD25 was captured via TrisNTA Biotin on SA chips and Kinetic titration of IL-2 fusion proteins of the present invention was performed reaching concentrations up to 500 nM.

[5] = target: monoclonal anti-human IL-2 antibody Nara1; assay: ELISA, Nara1 coated, fusion protein titrated, anti-human IgG-Peroxidase; lowest concentration with signal at or above the cut point

Binder	EC50 (M), SEAP of HEK-Blue IL-2 reporter cells [1]	EC50 [2]	EC50 CD8 cells (nM), pSTAT5 MFI [3]	EC50 NK cells (nM), pSTAT5 MFI [3]	EC50 Treg cells (nM), pSTAT5 MFI [3]	Kd [4]	Lowest concentration (nM) OD450-570 ≥ CP [5]
FUE443 (other, Antibody-IL-2 fusion on Antibody C; also called FUE433; FEU443) heavy: EVQLVQSGAEVKKPGESLKISCKGSGYSFTNFYIHWVRQAPGQRLEWMGSIYPNYGDTAYNQKFKDRFVFSLDTSVSTAYLQISSLKAEDTAVYYCARGYSYAMDYWGQGTTVTVSS[omitted - human IgG1 constant region] light: DIQMTQSPSSVSASVGDRVTITCSASQGISGGGGNFHLRPRDLISNINVIVLELKGSETTFMCEYADETATIVEFLNRWITFSQSIISTLTPTSSSTKKTQLQLEHLLLDLQMILNGINNYKNPKLTRMLTFKFYMPKKATELKHLQCLEEELKPLEEVLNLAQSKGGGGDLNWYQQKPGKAPKLLIYHTSSLHSGVPSRFSGSGSGTDFTLTISSLQPEDFATYYCQYYSKDLLTFGGGTKLEIKRTVAAPSVFIFPPSDEQLKSGTASVVCLLNNFYPREAKVQWKVDNALQSGNSQESVTEQDSKDSTYSLSSTLTLSKADYEKHKVYACEVTHQGLSSPVTKSFNRGEC	4.84e-12 M	0.54 nM	15.7 nM	1.2 nM	< 0.016 nM	0.16 nM	< 0.09 nM
LQM346 (other, Antibody-IL-2 fusion on Antibody C; also called IL-2 fusion protein to antibody C, linker 1 6 AA, linker 2 7 AA) heavy: EVQLVQSGAEVKKPGESLKISCKGSGYSFTNFYIHWVRQAPGQRLEWMGSIYPNYGDTAYNQKFKDRFVFSLDTSVSTAYLQISSLKAEDTAVYYCARGYSYAMDYWGQGTTVTVSS[omitted - human IgG1 constant region] light: DIQMTQSPSSVSASVGDRVTITCSASQGISGGGGGSGNFHLRPRDLISNINVIVLELKGSETTFMCEYADETATIVEFLNRWITFSQSIISTLTPTSSSTKKTQLQLEHLLLDLQMILNGINNYKNPKLTRMLTFKFYMPKKATELKHLQCLEEELKPLEEVLNLAQSKGGGGSGGDLNWYQQKPGKAPKLLIYHTSSLHSGVPSRFSGSGSGTDFTLTISSLQPEDFATYYCQYYSKDLLTFGGGTKLEIKRTVAAPSVFIFPPSDEQLKSGTASVVCLLNNFYPREAKVQWKVDNALQSGNSQESVTEQDSKDSTYSLSSTLTLSKADYEKHKVYACEVTHQGLSSPVTKSFNRGEC	4.92e-12 M	0.28 nM	25.4 nM	1.8 nM	< 0.016 nM	0.15 nM	< 0.09 nM

Second part, the binder after the results:

EC50 (M), SEAP of HEK-Blue IL-2 reporter cells [1]	EC50 [2]	EC50 CD8 cells (nM), pSTAT5 MFI [3]	EC50 NK cells (nM), pSTAT5 MFI [3]	EC50 Treg cells (nM), pSTAT5 MFI [3]	Kd [4]	Lowest concentration (nM) OD450-570 ≥ CP [5]	Binder
7.35e-12 M	0.24 nM	32 nM	1.7 nM	< 0.016 nM	0.12 nM	< 0.09 nM	LPT269 (other, also called IL-2 fusion protein to antibody C, linker 1 0 AA, linker 2 1 AA) heavy: EVQLVQSGAEVKKPGESLKISCKGSGYSFTNFYIHWVRQAPGQRLEWMGSIYPNYGDTAYNQKFKDRFVFSLDTSVSTAYLQISSLKAEDTAVYYCARGYSYAMDYWGQGTTVTVSS[omitted - human IgG1 constant region] light: DIQMTQSPSSVSASVGDRVTITCSASQGISGNFHLRPRDLISNINVIVLELKGSETTFMCEYADETATIVEFLNRWITFSQSIISTLTPTSSSTKKTQLQLEHLLLDLQMILNGINNYKNPKLTRMLTFKFYMPKKATELKHLQCLEEELKPLEEVLNLAQSKGDLNWYQQKPGKAPKLLIYHTSSLHSGVPSRFSGSGSGTDFTLTISSLQPEDFATYYCQYYSKDLLTFGGGTKLEIKRTVAAPSVFIFPPSDEQLKSGTASVVCLLNNFYPREAKVQWKVDNALQSGNSQESVTEQDSKDSTYSLSSTLTLSKADYEKHKVYACEVTHQGLSSPVTKSFNRGEC
5.47e-12 M	0.28 nM	18.6 nM	1.3 nM	< 0.016 nM	0.18 nM	< 0.09 nM	DXM339 (other, Antibody-IL-2 fusion on Antibody C; also called IL-2 fusion protein to antibody C, linker 1 2 AA, linker 2 3 AA) heavy: EVQLVQSGAEVKKPGESLKISCKGSGYSFTNFYIHWVRQAPGQRLEWMGSIYPNYGDTAYNQKFKDRFVFSLDTSVSTAYLQISSLKAEDTAVYYCARGYSYAMDYWGQGTTVTVSS[omitted - human IgG1 constant region] light: DIQMTQSPSSVSASVGDRVTITCSASQGISGGGNFHLRPRDLISNINVIVLELKGSETTFMCEYADETATIVEFLNRWITFSQSIISTLTPTSSSTKKTQLQLEHLLLDLQMILNGINNYKNPKLTRMLTFKFYMPKKATELKHLQCLEEELKPLEEVLNLAQSKGGGDLNWYQQKPGKAPKLLIYHTSSLHSGVPSRFSGSGSGTDFTLTISSLQPEDFATYYCQYYSKDLLTFGGGTKLEIKRTVAAPSVFIFPPSDEQLKSGTASVVCLLNNFYPREAKVQWKVDNALQSGNSQESVTEQDSKDSTYSLSSTLTLSKADYEKHKVYACEVTHQGLSSPVTKSFNRGEC
